From PubChem BioAssay AID1454 (National Center for Advancing Translational Sciences (NCATS), 2008)
The campaign covered roughly 130,000 compounds. About 550 (0.42%) were called active. This list was built around the results that the source calls inconclusive (neither active nor inactive); the mix of calls is not that of the screen. The call rests on the fitted dose curve; in most records, active means well fitted inhibition curve with a large enough effect; inconclusive means small, poorly fitted or top-dose-only effect, or effect the other way; inactive means flat fitted curve, though single readings scatter. No potency is given beside an inconclusive call; the fits are too rough.

test: qHTS Assay for Inhibitors of the ERK Signaling Pathway using a Homogeneous Screening Assay; Stimulation with EGF; conditions: HEK293-V1b, EGF-stimulated phospho-ERK AlphaScreen; further: nearly all actives have a fitted effect of over 55% in size
Procedure, shortened: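 HEK293 cells stably expressing V1b receptor, serum-reduced (1% FBS) overnight, got compound for 30 min at 37C, then 25 nM EGF for 5 min. Lysate phospho-ERK read by AlphaScreen SureFire; AC50 from Hill fits.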
Potency means the concentration at half of the fitted maximal effect; tags describe the fitted curve by direction and shape.

For `CCOC(=O)Cc1csc(NC(=O)/C=C/c2ccc(Br)o2)n1`, which Potency is on record?
The Potency was active: 35.5 µM.

For `O=C(/C=C/c1ccccc1O)c1ccc(Cl)cc1`, which Potency is on record?
The Potency was active: 39.8 µM.

Which Potency does the source give for `CN(C)c1ccc(NC(=S)c2ccccn2)cc1` here?
The Potency was active: 20 µM.

For `COc1ccccc1CNc1ncncc1-c1ccc(N(C)C)cc1`, which Potency is on record?
Its Potency is active: 20 µM.

With `COc1ccc2c(c1)C(=O)[C@@H](OC(=O)NCCc1ccc(OC)c(OC)c1)[C@H](c1ccc(OC)c(Br)c1)O2` as the compound, how does the Potency read?
Its Potency is “inactive”.

With `COc1ccc2c(c1)C(=O)[C@H](OC(=O)Nc1ccc(OC(F)F)cc1)[C@@H](c1ccc(OC)c(Br)c1)O2` as the compound, how does the Potency read?
Its Potency is “inactive”.

With `CC(=O)C1(C)CC2(CC(C)(C)OC2=O)C(=O)O1` (stereo not drawn) as the compound, how does the Potency read?
The Potency was “inactive”.

Which Potency does the source give for `CCCC(=O)Nc1nnc(-c2ccc3c(c2)OCCO3)o1` here?
Its Potency is inconclusive [inhibitor, single point].

Which Potency does the source give for `Cc1nn(-c2cc(N3CCCCC3)ccc2[N+](=O)[O-])c(=O)c2ccccc12` here?
Its Potency is inconclusive [inhibitor, single point].

For `O=c1c(-c2cccs2)nc2cnc(N3CCNCC3)nc2n1-c1ccccc1`, which Potency is on record?
The Potency was inconclusive [activator, single point].

Which Potency does the source give for `COc1cc2c(cc1OC)CN(c1ccc([N+](=O)[O-])cc1Cl)CC2` here?
The Potency was inconclusive [inhibitor, single point].

With `O=C1Nc2ccc(Br)cc2/C1=C/C(=O)c1ccc2c(c1)OCO2` as the compound, how does the Potency read?
Its Potency is active: 31.6 µM.

Which Potency does the source give for `O=C(Cn1cnc([N+](=O)[O-])c1)Nc1cc(Oc2ccc(Cl)cc2Cl)cc([N+](=O)[O-])c1` here?
The Potency was inconclusive [inhibitor, single point].

For `CC1=NN(c2cccc(C(=O)O)c2)C(=O)/C1=C\C=C/c1ccccc1`, which Potency is on record?
The Potency was inconclusive [inhibitor, single point].

Which Potency does the source give for `CCc1ccc(C(=O)NC(=S)Nc2ccc(N3CCOCC3)cc2)cc1` here?
Its Potency is inconclusive [inhibitor, single point].

Which Potency does the source give for `O=C(Nc1nc(-c2ccc(F)cc2)cs1)c1cccnc1` here?
Its Potency is inconclusive [inhibitor, single point].

For `COC(=O)CSc1nc2cc3c(cc2cc1C)OCO3`, which Potency is on record?
Its Potency is “inactive”.

For `CCCOc1ccc2cc(-c3ccccn3)c(=O)oc2c1`, which Potency is on record?
The Potency was inconclusive [activator, partial curve].

With `COCCn1c(=O)c(-c2ccc(OC)cc2)nc2cnc(Oc3ccc(OC)cc3)nc21` as the compound, how does the Potency read?
Its Potency is “inactive”.

With `Cc1cc(C(=O)OCC(=O)N2CC(=O)Nc3ccccc32)c(C)n1-c1ccccc1` as the compound, how does the Potency read?
Its Potency is inconclusive [inhibitor, single point].

For `COc1ccc(C(=O)O/N=C(/c2ccccc2)c2ccncc2)cc1`, which Potency is on record?
The Potency was inconclusive [inhibitor, partial curve].

Which Potency does the source give for `COc1ccc(/C=C2\SC(=S)N(CCCC(=O)Nc3ccc(O)cc3)C2=O)cc1` here?
The Potency was inconclusive [inhibitor, single point].

With `CCNc1nn2ccccc2c1/C=C(\C#N)C(=O)OCC` as the compound, how does the Potency read?
Its Potency is “inactive”.

With `COc1cccc(OC)c1C(=O)Nc1nc(COc2ccccc2)cs1` as the compound, how does the Potency read?
Its Potency is inconclusive [inhibitor, single point].

Which Potency does the source give for `CCN(CC)c1ccc(NC(=S)Nc2ccc(F)cc2)cc1` here?
Its Potency is inconclusive [inhibitor, partial curve].

For `Fc1ccccc1C1c2[nH]c3ccccc3c2CCN1Cc1cccn1-c1ncccn1` (stereo not drawn), which Potency is on record?
The Potency was inconclusive [inhibitor, single point].

With `COC(=O)c1sc(N2C(=O)c3oc4ccccc4c(=O)c3C2c2cccc(O)c2)nc1C` (stereo not drawn) as the compound, how does the Potency read?
Its Potency is “inactive”.

For `COc1ccc(-c2csc(NC(=O)CC(C)C)n2)cc1`, which Potency is on record?
Its Potency is inconclusive [inhibitor, single point].

Which Potency does the source give for `COc1ccc(N2CCN(C3=CC(=O)N(c4cccc(Cl)c4)C3=O)CC2)cc1` here?
The Potency was inconclusive [inhibitor, single point].

Which Potency does the source give for `CC(=O)c1c(O)cc(C)n(-c2ccc(F)cc2)c1=O` here?
The Potency was “inactive”.

With `Cc1ccccc1C1C2=C(Nc3[nH]n(-c4ccccc4)c(=O)c31)c1ccccc1C2=O` (stereo not drawn) as the compound, how does the Potency read?
The Potency was inconclusive [inhibitor, single point].

With `CCOC(=O)C1C(=O)NC(c2ccccc2)=NC1c1ccc(Br)cc1` (stereo not drawn) as the compound, how does the Potency read?
The Potency was inconclusive [inhibitor, single point].

For `Cc1ccc(S(=O)(=O)N2CCCN(c3nc4cc(C)ccc4cc3C#N)CC2)cc1`, which Potency is on record?
Its Potency is inconclusive [activator, partial curve].

For `CC(Nc1oc(-c2ccccc2)nc1-c1cccc2ccccc12)c1ccccc1` (stereo not drawn), which Potency is on record?
The Potency was “inactive”.

With `CCOc1ccc(S(=O)(=O)N2Cc3ccccc3CC2C(=O)O)cc1` (stereo not drawn) as the compound, how does the Potency read?
The Potency was inconclusive [inhibitor, single point].

For `Cc1ccc(C(=O)c2cc([N+](=O)[O-])ccc2N2CCOCC2)cc1`, which Potency is on record?
Its Potency is “inactive”.

For `Cc1nn(-c2ccccc2)c(C)c1NC(=O)COc1ccc(Cl)cc1Cl`, which Potency is on record?
Its Potency is inconclusive [inhibitor, single point].

For `Cc1noc(C)c1C(=O)N1CCC[C@@]2(CCN(Cc3cc(C(F)(F)F)cc(C(F)(F)F)c3)C2)C1`, which Potency is on record?
The Potency was “inactive”.

Which Potency does the source give for `CC(C)c1ccc(N2C(=O)/C(=C/N(C)C)SC2=S)cc1` here?
The Potency was inconclusive [inhibitor, partial curve, poor fit].

With `NCC(O)C1CCCCCCC1` (stereo not drawn) as the compound, how does the Potency read?
The Potency was “inactive”.

Which Potency does the source give for `Cn1c2ccccc2c(=O)c2c(=O)n(-c3ccccc3)c(-c3ccc(C(C)(C)C)cc3)nc21` here?
The Potency was inconclusive [inhibitor, partial curve, poor fit].

With `COc1ccc(Cn2c(SCC#N)nc3ccc(N4CCOCC4)cc3c2=O)cc1` as the compound, how does the Potency read?
The Potency was inconclusive [inhibitor, single point].

With `Cc1ccc(-c2ccc(/C=N/NC(=O)c3ccccc3O)o2)cc1` as the compound, how does the Potency read?
The Potency was inconclusive [inhibitor, single point].

With `CC1=NNC(=O)C1CCC(=O)N/N=C(\C)c1ccc(Cl)cc1` (stereo not drawn) as the compound, how does the Potency read?
The Potency was “inactive”.

With `Cc1sc(N/N=C/c2ccco2)nc1-c1ccccc1` as the compound, how does the Potency read?
Its Potency is “inactive”.

Which Potency does the source give for `CC(C)(C)Nc1oc(-c2ccccc2)nc1-c1ccc(C(F)(F)F)cc1` here?
The Potency was “inactive”.

Which Potency does the source give for `CCN(CC)CCn1c(=N)n(CC(O)COc2ccccc2)c2ccccc21` (stereo not drawn) here?
The Potency was “inactive”.

Which Potency does the source give for `COc1ccc(-c2nc(N/N=C(\C)c3ccc(O)cc3)c3ccccc3n2)cc1` here?
Its Potency is inconclusive [inhibitor, partial curve, poor fit].

For `COC(=O)COc1cccc2c(=O)n(CC(=O)NCCc3ccc(OC)c(OC)c3)ccc12`, which Potency is on record?
Its Potency is inconclusive [inhibitor, partial curve].

For `COc1ccccc1N1CCN(C2=Nc3cccc4cccc2c34)CC1`, which Potency is on record?
The Potency was inconclusive [inhibitor, single point].

With `O=C(C1=C[C@@H](c2coc3ccccc3c2=O)C[C@@H](OCCCCO)O1)N1CCN(Cc2ccccc2)CC1` as the compound, how does the Potency read?
Its Potency is inconclusive [inhibitor, single point].

For `Cc1ccc(OC/C(O)=C(\C#N)c2nc3ccccc3s2)cc1`, which Potency is on record?
Its Potency is “inactive”.

Which Potency does the source give for `COc1ccc(NC2=C(NCCO)C(=O)c3ccccc3C2=O)cc1` here?
Its Potency is inconclusive [inhibitor, partial curve].

With `CS(=O)(=O)Nc1cccc(-c2ccc3ncnc(Nc4ccc(F)cc4)c3c2)c1` as the compound, how does the Potency read?
The Potency was active: 1.12 µM.

For `O=C(CN1CCc2ccccc21)NN1CC(=O)N(c2ccccc2)CC1=O`, which Potency is on record?
The Potency was inconclusive [inhibitor, partial curve].

Which Potency does the source give for `O=C(C1CCCC1)N1CCN=C1SCc1cccc([N+](=O)[O-])c1` here?
The Potency was inconclusive [inhibitor, single point].

For `NC(=O)CC(NC(=O)Cc1ccc(Br)cc1)c1ccc(N2CCC(Cc3ccccc3)CC2)c([N+](=O)[O-])c1` (stereo not drawn), which Potency is on record?
Its Potency is inconclusive [inhibitor, partial curve, poor fit].

For `Cc1ccc(C)c(N2CCN(C(=O)c3ccc(CSc4nc5ccncc5[nH]4)cc3)CC2)c1`, which Potency is on record?
Its Potency is inconclusive [inhibitor, single point].

For `O=C(C1CCCCC1)N(CCN1CCCC1)c1nc2ccccc2s1`, which Potency is on record?
The Potency was inconclusive [inhibitor, full curve].

With `Cc1cc2ccccn2c1C(=O)Nc1ccc(Cl)cc1` as the compound, how does the Potency read?
The Potency was inconclusive [inhibitor, single point].

With `CC(C)(C=O)Cc1cc(C(C)(C)C)c(O)c(C(C)(C)C)c1` as the compound, how does the Potency read?
The Potency was inconclusive [inhibitor, single point].

With `Cc1ccc(N=C2NC(=O)/C(=C/c3cccn3C)S2)c(C)c1` as the compound, how does the Potency read?
Its Potency is inconclusive [inhibitor, full curve, poor fit].

Which Potency does the source give for `C=CCSc1nc2c(c(C3CC=CCC3)c1C#N)CCC2` (stereo not drawn) here?
Its Potency is inconclusive [activator, single point].

Which Potency does the source give for `Cc1cc(C(=O)NC(=S)Nc2cccc(NC(=O)C(C)C)c2)ccc1[N+](=O)[O-]` here?
The Potency was inconclusive [inhibitor, single point].

Which Potency does the source give for `Cc1ccc(NC(=O)N2CCCC2C(=O)NCc2cccs2)cc1` (stereo not drawn) here?
Its Potency is inconclusive [inhibitor, single point].

For `Cc1ccc2oc(-c3cccc(NC(=O)c4cc(-n5cnnc5)ccc4Cl)c3)nc2c1`, which Potency is on record?
The Potency was inconclusive [inhibitor, single point].

With `CCS(=O)(=O)c1ccc2c(c1)NC(=O)C(CCCl)O2` (stereo not drawn) as the compound, how does the Potency read?
Its Potency is inconclusive [inhibitor, single point].

For `O=C(/C=C/c1ccc(O)c(O)c1)c1ccc(S(=O)(=O)N2CCCCCC2)cc1`, which Potency is on record?
Its Potency is inconclusive [inhibitor, single point].
